# Measurements reported in article PMC5892938.
# Some of the results follow. At the low end of the ranking the order means little.
# Molecular target: GST-SBP-SLBP (stem-loop binding protein) (UniProt Q14493)
# Experiment: targeted RNA Bind-n-Seq;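 note: DESeq read counts versus GST-SBP nonspecific binding control pulldown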
# Details: RBNS binding buffer: 25 mM Tris pH 7.5, 150 mM KCl, 3 mM MgCl2, 0.1% Tween, 0.5 mg/mL BSA, 1 mM DTT; 27 nM protein, 750 pM RNA pool; temperature not stated; high values mean tight binding
row,Sequence,binding signal (log2 fold change)
1,GGUCACGUCUCAAUCAACUCCUCAGAGGGGGGGAAAACCCCUUUGCCCUCCACAUCAACAGCUCGCAGUCAAG,-0.139
2,GGUCACGUCUCAAUCAACUCUUCAGAGGGGGGGAAAACCCCUUUGCCCUCAACAUCAACAGCUCGCAGUCAAG,0.0495
3,GGUCACGUCUCAAUCAACUCAUCUUCCAGGGAAAUCCCUGGCUAUCUCAACAGCUCGCAGUCAAG,0.276
4,GGUCACGUCUCAAUCAACUCAUCCCCCAGGGAAACCCCUGGUUUUUUCAACAGCUCGCAGUCAAG,-0.246
5,GGUCACGUCUCAAUCAACUCUUCCCCCAGGGAAAACCCUGGUUUUUUCAACAGCUCGCAGUCAAG,0.00103
6,GGUCACGUCUCAAUCAACUCUAUCUCAGGAGUUUUCUCCUGCAAUUUCAACAGCUCGCAGUCAAG,-0.167
7,GGUCACGUCUCAAUCAACUCAUCUUCAGGAGUUUUCUCCUGCUAUCUCAACAGCUCGCAGUCAAG,0.0726
8,GGUCACGUCUCAAUCAACUCUUCCCCCAGGGAAAUCCCUGGUAUUCUCAACAGCUCGCAGUCAAG,0.0471
9,GGUCACGUCUCAAUCAACUCCUUAGAGGGGGGGAAAACCCCUUUACCCUCCAUGUCAACAGCUCGCAGUCAAG,0.16
10,GGUCACGUCUCAAUCAACUCUAUUCCCAGGGAAAGCCCUGGUUAUUUCAACAGCUCGCAGUCAAG,-0.0302
11,GGUCACGUCUCAAUCAACUCCUACGAGGGGGGGAAAACCCCUUUACCCUCAAUUUCAACAGCUCGCAGUCAAG,0.14
12,GGUCACGUCUCAAUCAACUCAAUUCCAGGAGUUUUCUCCUGUAAACUCAACAGCUCGCAGUCAAG,0.105
13,GGUCACGUCUCAAUCAACUCUUUUUCCAGGGAAAGCCCUGGCAUACUCAACAGCUCGCAGUCAAG,0.136
14,GGUCACGUCUCAAUCAACUCUUUUUCCAGGGAAAGCCCUGGUAUACUCAACAGCUCGCAGUCAAG,-0.0546
15,GGUCACGUCUCAAUCAACUCCCACGAGGGGGGGAAAACCCCUUUACCCUCAUAUUCAACAGCUCGCAGUCAAG,-0.399
16,GGUCACGUCUCAAUCAACUCAAUCCCCAGGGAAAUCCCUGGCAAUCUCAACAGCUCGCAGUCAAG,0.171
17,GGUCACGUCUCAAUCAACUCCUAUGAGGGGGGGAAAACCCCUUUACCCUCCAUUUCAACAGCUCGCAGUCAAG,-0.098
18,GGUCACGUCUCAAUCAACUCCCUCGAGGGGGGGAAAACCCCUUUACCCUCUAUUUCAACAGCUCGCAGUCAAG,0.254
19,GGUCACGUCUCAAUCAACUCAAUCUCCAGGGAAAACCCUGGUUAUCUCAACAGCUCGCAGUCAAG,0.128
20,GGUCACGUCUCAAUCAACUCAAUCGCAGGAGUUUACUCCUGGUUUCUCAACAGCUCGCAGUCAAG,-0.0207
21,GGUCACGUCUCAAUCAACUCAUCCCCCAGGGAAAUCCCUGGCAAAUUCAACAGCUCGCAGUCAAG,0.0484
22,GGUCACGUCUCAAUCAACUCUUCUUCCAGGGAAAUCCCUGGCUUUUUCAACAGCUCGCAGUCAAG,-0.0109
23,GGUCACGUCUCAAUCAACUCAAGUCCAGGAGUUUACUCCUGUUUUUUCAACAGCUCGCAGUCAAG,-0.112
24,GGUCACGUCUCAAUCAACUCAAACGAGGGGGGGAAAACCCCUUUGCCCUCACAAUCAACAGCUCGCAGUCAAG,0.049

row,Sequence,binding signal (log2 fold change)
1,GGUCACGUCUCAAUCAACUCUAUCUCCAGGGAAACCCCUGGCAAUCUCAACAGCUCGCAGUCAAG,-0.0672
2,GGUCACGUCUCAAUCAACUCUACUUCCAGGGAAAACCCUGGCAAUCUCAACAGCUCGCAGUCAAG,0.0337
3,GGUCACGUCUCAAUCAACUCUUCGUCAGGAGUUUACUCCUGUAUAUUCAACAGCUCGCAGUCAAG,0.17
4,GGUCACGUCUCAAUCAACUCUACAGAGGGGGGGAAAACCCCUUUACCCUCACAUUCAACAGCUCGCAGUCAAG,0.08
5,GGUCACGUCUCAAUCAACUCAUUCGAGGGGGGGAAAACCCCUUUACCCUCCACAUCAACAGCUCGCAGUCAAG,0.0184
6,GGUCACGUCUCAAUCAACUCCAUCGAGGGGGGGAAAACCCCUUUACCCUCAUUCUCAACAGCUCGCAGUCAAG,0.101
7,GGUCACGUCUCAAUCAACUCAACUCCAGGAGUUUCCUCCUGCAAUGUCAACAGCUCGCAGUCAAG,0.0348
8,GGUCACGUCUCAAUCAACUCCUCUGAGGGGGGGAAAACCCCUUUACCCUCUUCUUCAACAGCUCGCAGUCAAG,-0.164
9,GGUCACGUCUCAAUCAACUCCCAUGAGGGGGGGAAAACCCCUUUACCCUCCACAUCAACAGCUCGCAGUCAAG,-0.274
10,GGUCACGUCUCAAUCAACUCCAAAGAGGGGGGGAAAACCCCUUUACCCUCAACCUCAACAGCUCGCAGUCAAG,0.316
11,GGUCACGUCUCAAUCAACUCUUCCUCCAGGGAAAUCCCUGGCAAUCUCAACAGCUCGCAGUCAAG,0.012
12,GGUCACGUCUCAAUCAACUCUUCGCCCAGGGAAAACCCUGGUAAAUUCAACAGCUCGCAGUCAAG,-0.0848
13,GGUCACGUCUCAAUCAACUCAUUUUCCAGGGAAAUCCCUGGCUAUUUCAACAGCUCGCAGUCAAG,-0.0971
14,GGUCACGUCUCAAUCAACUCUACUUCAGGAGUUUUCUCCUGUUUACUCAACAGCUCGCAGUCAAG,0.0653
15,GGUCACGUCUCAAUCAACUCUAAAGAGGGGGGGAAAACCCCUUUUCCCUCAACAUCAACAGCUCGCAGUCAAG,-0.113
16,GGUCACGUCUCAAUCAACUCUUUCCCCAGGGAAAUCCCUGGUAUAUUCAACAGCUCGCAGUCAAG,-0.0125
17,GGUCACGUCUCAAUCAACUCUAUCUCCAGGGAAAGCCCUGGUUUUCUCAACAGCUCGCAGUCAAG,-0.282
18,GGUCACGUCUCAAUCAACUCAUUCCCAGGAGUUUCCUCCUGCUUUCUCAACAGCUCGCAGUCAAG,0.00431
19,GGUCACGUCUCAAUCAACUCCUAAGAGGGGGGGAAAACCCCUUUACCCUCACCAUCAACAGCUCGCAGUCAAG,0.101
20,GGUCACGUCUCAAUCAACUCAACUCCCAGGGAAAGCCCUGGCUUAUUCAACAGCUCGCAGUCAAG,0.17
21,GGUCACGUCUCAAUCAACUCAAUUUCAGGAGUUUACUCCUGCUAUUUCAACAGCUCGCAGUCAAG,0.286
22,GGUCACGUCUCAAUCAACUCUCACGAGGGGGGGAAAACCCCUUUACCCUCACAUUCAACAGCUCGCAGUCAAG,0.0923
23,GGUCACGUCUCAAUCAACUCUAUUUCCAGGGAAAUCCCUGGCUAAUUCAACAGCUCGCAGUCAAG,-0.106
